Measured values published in the supplement of paper PMC8948288.
The sequences are guide strands of siRNAs; only the seed at positions 2 to 7 varies.

How the values were obtained:
[1] = test system: H4; assay: cell viability relative to siNT1 (ATP content); H4 human neuroglioma and GL261 mouse glioma; higher = less toxic; conditions: siRNA concentration 10 nM; 96 h; human
[2] = test system: GL261; assay: as above; conditions: siRNA concentration 25 nM; 96 h; mouse
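Further: cells reverse transfected with siRNA duplexes via lipid reagent, ATP read by luminescence, triplicate wells, values scaled to mean viability with non-targeting control siNT1.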

Row | Sequence | cell viability [1] | cell viability [2]
1 | UCUGUGAACAUGUAAACCA | 93.6% | 41.7%
2 | UCUGUGCACAUGUAAACCA | 57.3% | 21.4%
3 | UCUGUGGACAUGUAAACCA | 44.2% | 35.7%
4 | UCUGUGUACAUGUAAACCA | 53.8% | 20.4%
5 | UCUGUUAACAUGUAAACCA | 72.4% | 33.5%
6 | UCUGUUCACAUGUAAACCA | 65.2% | 34.8%
7 | UCUGUUGACAUGUAAACCA | 90.7% | 45.8%
8 | UCUGUUUACAUGUAAACCA | 88.5% | 39.8%
9 | UCUUAAAACAUGUAAACCA | 100% | 83.4%
10 | UCUUAACACAUGUAAACCA | 87.2% | 60.5%
11 | UCUUAAGACAUGUAAACCA | 95.5% | 56.7%
12 | UCUUAAUACAUGUAAACCA | 93.5% | 57.6%
13 | UCUUACAACAUGUAAACCA | 90.2% | 50.2%
14 | UCUUACCACAUGUAAACCA | 51.9% | 44.9%
15 | UCUUACGACAUGUAAACCA | 89.6% | 52.6%
16 | UCUUACUACAUGUAAACCA | 97.4% | 75.6%
17 | UCUUAGAACAUGUAAACCA | 101% | 49.9%
18 | UCUUAGCACAUGUAAACCA | 74.3% | 36.8%
19 | UCUUAGGACAUGUAAACCA | 79.8% | 47.7%
20 | UCUUAGUACAUGUAAACCA | 87.5% | 37.6%
21 | UCUUAUAACAUGUAAACCA | 88.6% | 41.5%
22 | UCUUAUCACAUGUAAACCA | 88% | 59.3%
23 | UCUUAUGACAUGUAAACCA | 114% | 38.9%
24 | UCUUAUUACAUGUAAACCA | 103% | 60.2%

Row | Sequence | cell viability [1] | cell viability [2]
25 | UCUUCAAACAUGUAAACCA | 113% | 33.4%
26 | UCUUCACACAUGUAAACCA | 80.9% | 42.7%
27 | UCUUCAGACAUGUAAACCA | 84.4% | 48.6%
28 | UCUUCAUACAUGUAAACCA | 86.7% | 35.5%
29 | UCUUCCAACAUGUAAACCA | 77.5% | 48%
30 | UCUUCCCACAUGUAAACCA | 51.9% | 44.3%
31 | UCUUCCGACAUGUAAACCA | 89.5% | 52.1%
32 | UCUUCCUACAUGUAAACCA | 74.5% | 21.8%
33 | UCUUCGAACAUGUAAACCA | 96.1% | 44.4%
34 | UCUUCGCACAUGUAAACCA | 64.5% | 18.2%
35 | UCUUCGGACAUGUAAACCA | 80.3% | 41.2%
36 | UCUUCGUACAUGUAAACCA | 99.6% | 45.6%
37 | UCUUCUAACAUGUAAACCA | 94.8% | 82.3%
38 | UCUUCUCACAUGUAAACCA | 77.2% | 28.6%
39 | UCUUCUGACAUGUAAACCA | 101% | 54.3%
40 | UCUUCUUACAUGUAAACCA | 94.6% | 56.5%
41 | UCUUGAAACAUGUAAACCA | 105% | 62.5%
42 | UCUUGACACAUGUAAACCA | 97% | 14.8%
43 | UCUUGAGACAUGUAAACCA | 73% | 49.8%
44 | UCUUGAUACAUGUAAACCA | 70.3% | 56.8%
45 | UCUUGCAACAUGUAAACCA | 95.8% | 68.6%
46 | UCUUGCCACAUGUAAACCA | 6.28% | 7.29%
47 | UCUUGCGACAUGUAAACCA | 98% | 46.6%
48 | UCUUGCUACAUGUAAACCA | 74.6% | 17.9%

Row | Sequence | cell viability [1] | cell viability [2]
49 | UCUUGGAACAUGUAAACCA | 41.8% | 44.7%
50 | UCUUGGCACAUGUAAACCA | 25% | 7.63%
51 | UCUUGGGACAUGUAAACCA | 50.5% | 49.3%
52 | UCUUGGUACAUGUAAACCA | 75% | 32.7%
53 | UCUUGUAACAUGUAAACCA | 97.9% | 64.9%
54 | UCUUGUCACAUGUAAACCA | 98.6% | 41.8%
55 | UCUUGUGACAUGUAAACCA | 92.2% | 39.4%
56 | UCUUGUUACAUGUAAACCA | 89.4% | 29.3%
57 | UCUUUAAACAUGUAAACCA | 113% | 52.3%
58 | UCUUUACACAUGUAAACCA | 77.9% | 69.8%
59 | UCUUUAGACAUGUAAACCA | 97.5% | 99.6%
60 | UCUUUAUACAUGUAAACCA | 111% | 74.5%
61 | UCUUUCAACAUGUAAACCA | 82.4% | 46.7%
62 | UCUUUCCACAUGUAAACCA | 38.1% | 28.5%
63 | UCUUUCGACAUGUAAACCA | 99% | 80.5%
64 | UCUUUCUACAUGUAAACCA | 61.9% | 43.8%
65 | UCUUUGAACAUGUAAACCA | 80.6% | 46.8%
66 | UCUUUGCACAUGUAAACCA | 55.9% | 13.8%
67 | UCUUUGGACAUGUAAACCA | 78.9% | 37.2%
68 | UCUUUGUACAUGUAAACCA | 84.1% | 24.1%
69 | UCUUUUAACAUGUAAACCA | 88.9% | 83.9%
70 | UCUUUUCACAUGUAAACCA | 87.8% | 54.8%
71 | UCUUUUGACAUGUAAACCA | 112% | 102%
72 | UCUUUUUACAUGUAAACCA | 102% | 56.5%

Row | Sequence | cell viability [1] | cell viability [2]
73 | UGAAAAAACAUGUAAACCA | 84.1% | 60.2%
74 | UGAAAACACAUGUAAACCA | 68.2% | 44.5%
75 | UGAAAAGACAUGUAAACCA | 89.5% | 59.7%
76 | UGAAAAUACAUGUAAACCA | 103% | 71.4%
77 | UGAAACAACAUGUAAACCA | 87.8% | 47.8%
78 | UGAAACCACAUGUAAACCA | 24.9% | 17.8%
79 | UGAAACGACAUGUAAACCA | 102% | 45.4%
80 | UGAAACUACAUGUAAACCA | 52.4% | 27.6%
81 | UGAAAGAACAUGUAAACCA | 81.2% | 65.8%
82 | UGAAAGCACAUGUAAACCA | 38.9% | 33.2%
83 | UGAAAGGACAUGUAAACCA | 68.8% | 35.7%
84 | UGAAAGUACAUGUAAACCA | 67.8% | 34.5%
85 | UGAAAUAACAUGUAAACCA | 96% | 66%
86 | UGAAAUCACAUGUAAACCA | 47.3% | 28.8%
87 | UGAAAUGACAUGUAAACCA | 72.1% | 61.4%
88 | UGAAAUUACAUGUAAACCA | 103% | 49.9%
89 | UGAACAAACAUGUAAACCA | 82% | 48.3%
90 | UGAACACACAUGUAAACCA | 52% | 41.1%
91 | UGAACAGACAUGUAAACCA | 49.4% | 73%
92 | UGAACAUACAUGUAAACCA | 87.8% | 39.5%
93 | UGAACCAACAUGUAAACCA | 71.9% | 65.3%
94 | UGAACCCACAUGUAAACCA | 48.7% | 34.6%
95 | UGAACCGACAUGUAAACCA | 88.5% | 65.1%
96 | UGAACCUACAUGUAAACCA | 85.6% | 16.9%

Row | Sequence | cell viability [1] | cell viability [2]
97 | UGAACGAACAUGUAAACCA | 87.2% | 51.4%
98 | UGAACGCACAUGUAAACCA | 81.7% | 44.1%
99 | UGAACGGACAUGUAAACCA | 77% | 19.6%
100 | UGAACGUACAUGUAAACCA | 75.3% | 37.1%
101 | UGAACUAACAUGUAAACCA | 75.3% | 67.2%
102 | UGAACUCACAUGUAAACCA | 12.6% | 17.7%
103 | UGAACUGACAUGUAAACCA | 83.3% | 41.3%
104 | UGAACUUACAUGUAAACCA | 93.9% | 62.3%
105 | UGAAGAAACAUGUAAACCA | 104% | 28.4%
106 | UGAAGACACAUGUAAACCA | 13.2% | 22.7%
107 | UGAAGAGACAUGUAAACCA | 66.6% | 31.4%
108 | UGAAGAUACAUGUAAACCA | 34% | 9.33%
109 | UGAAGCAACAUGUAAACCA | 80.5% | 39.8%
110 | UGAAGCCACAUGUAAACCA | 13.1% | 13.3%
111 | UGAAGCGACAUGUAAACCA | 80.3% | 49.2%
112 | UGAAGCUACAUGUAAACCA | 23.5% | 5.64%
113 | UGAAGGAACAUGUAAACCA | 52.5% | 20.8%
114 | UGAAGGCACAUGUAAACCA | 20.1% | 6.92%
115 | UGAAGGGACAUGUAAACCA | 38.6% | 13.4%
116 | UGAAGGUACAUGUAAACCA | 31.9% | 8.69%
117 | UGAAGUAACAUGUAAACCA | 91% | 65.9%
118 | UGAAGUCACAUGUAAACCA | 18.3% | 4.25%
